Lines with a small IC50 respond at low doses; a limit (>, <) means that the fit lies beyond the doses tested. AUC sums up the same curve from the lowest dose to the 256-fold higher top dose; it is 1 without any effect and falls as sensitivity rises. For some assays here: The top dose, if marked as inferred, is not printed in the source and was worked back from the curve model.
Columns and labels:
Experiment in all cases: Viability of human cancer cell lines after 72 h of drug (GDSC screen)
AZD7762 = compound: NC(=O)Nc1cc(-c2cccc(F)c2)sc1C(=O)N[C@H]1CCCNC1 [AZD7762]; conditions: top dose 2 µM
Description: (§1)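 Human cancer cell lines in 384-well plates, medium with 10% serum, drug for 72 h over a 256-fold dose range (nine 2-fold or five 4-fold steps up to the top dose). Adherent lines were fixed and stained with the nucleic acid dye Syto60, suspension lines read with resazurin; signal relative to control wells, capped at 0 and 100%. One two-parameter sigmoid per drug and line, fitted in a mixed model over all curves with the slope shared within a line.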

XAV 939 = compound: Oc1nc(-c2ccc(C(F)(F)F)cc2)nc2c1CSCC2 [XAV 939]; conditions: top dose 5 µM; top dose inferred
Description: as §1

NPK76-II-72-1 = compound: COc1cc(C(=O)NC2CCN(C)CC2)ccc1Nc1ncc2c(n1)N(C1CCCC1)C(C)CC(=O)N2C [NPK76-II-72-1]; conditions: top dose 10.24 µM; top dose inferred
Description: as §1

BMS-345541 = compound: Cc1ccc2nc(NCCN)c3ncc(C)n3c2c1 [BMS-345541]; conditions: top dose 16 µM
Description: as §1

GSK-650394 = compound: O=C(O)c1ccc(-c2c[nH]c3ncc(-c4ccccc4)cc23)cc1C1CCCC1 [GSK-650394]; conditions: top dose 16 µM; top dose inferred
Description: as §1

Bexarotene = compound: C=C(c1ccc(C(=O)O)cc1)c1cc2c(cc1C)C(C)(C)CCC2(C)C [Bexarotene]; conditions: top dose 8 µM
Description: as §1

Row | Cell Line | AUC (AZD7762) | IC50 (AZD7762) [µM] | AUC (XAV 939) | IC50 (XAV 939) [µM] | AUC (NPK76-II-72-1) | IC50 (NPK76-II-72-1) [µM] | AUC (BMS-345541) | IC50 (BMS-345541) [µM] | AUC (GSK-650394) | IC50 (GSK-650394) [µM] | AUC (Bexarotene) | IC50 (Bexarotene) [µM]
1 | JHOS-4 (ovary, adherent) | 0.629 | 0.332 | 0.863 | > 5 |  |  |  |  |  |  |  | 
2 | K-562 (chronic myeloid leukaemia, suspension) |  |  |  |  | 0.757 | 3.42 |  |  |  |  |  | 
3 | KATOIII (stomach, semi-adherent) | 0.694 | 0.415 | 0.986 | > 5 |  |  |  |  |  |  |  | 
4 | KP-N-YN (neuroblastoma, adherent) | 0.654 |  | 0.985 | > 5 | 0.885 | > 10.2 | 0.968 | > 16 | 0.877 | > 16 |  | 
5 | MM1S (myeloma, suspension) | 0.669 | 0.36 |  |  |  |  |  |  |  |  |  | 
6 | NCI-N87 (stomach, adherent) | 0.762 | 1.03 | 0.904 | > 5 |  |  |  |  |  |  |  | 
7 | OCI-LY7 (B-cell lymphoma, suspension) | 0.261 | 0.0329 |  |  |  |  |  |  |  |  |  | 
8 | OV-7 (ovary, adherent) | 0.732 | 0.823 |  |  | 0.912 | > 10.2 | 0.833 | > 16 |  |  |  | 
9 | RCC-ER (kidney, adherent) | 0.587 | 0.222 | 0.933 | > 5 | 0.986 | > 10.2 | 0.905 | > 16 |  |  |  | 
10 | RCC-FG2 (kidney, adherent) | 0.715 | 0.61 | 0.824 | 4.13 | 0.944 | > 10.2 | 0.905 | > 16 |  |  |  | 
11 | RCC-JF (kidney, adherent) | 0.553 | 0.177 | 0.94 | > 5 | 0.917 | > 10.2 | 0.856 | 15.5 |  |  |  | 
12 | RCC-MF (kidney, adherent) | 0.594 | 0.245 | 0.909 | > 5 | 0.936 | > 10.2 | 0.806 | 11.2 |  |  |  | 
13 | SK-MEL-28 (melanoma, adherent) |  |  | 0.985 | > 5 | 0.988 | > 10.2 | 0.94 | > 16 | 0.984 | > 16 | 0.938 | > 8
14 | SNU-175 (large intestine, suspension) |  |  |  |  | 0.809 | 4.94 | 0.811 | 7.89 |  |  |  | 
15 | TE-4 (oesophagus, adherent) | 0.521 | 0.143 | 0.931 | > 5 | 0.976 | > 10.2 | 0.905 | > 16 |  |  |  | 
16 | YMB-1-E (breast, adherent) |  |  |  |  | 0.967 | > 10.2 | 0.923 | > 16 |  |  |  | 
17 | ZR-75-30 (breast, adherent) | 0.946 | > 2 | 0.981 | > 5 |  |  |  |  |  |  |  | 
